# Data published in the supplement of paper PMC8728848.
# The list shows a part of the results.
# B1: Tamarinin (protein)
# chain: CDDSARAGNIVVYWGQGGSDNSEGSLKEACKSGHYNMIVLQQLIVYDDGRDPDLNLGAHCSDCTKLEEQIKYCQNKDIKILLQIGQVVPTQEDVKDVTKNLSEYLLKNFFSGKSGPLGEVYLNGIDIASVPEGNNLKFDELVEALNDSSTERRIYLSASPLCVYPDYYLNKAIQTEKLDFLFVQFFYQNPCIYTEGNPENLFEAMKTWTKNVPESMIFMALPATPNLDGYIPPRVLNKEILPAVSEASNFAGVMIFDRYFDRFRKYSSKIK
# How the values were obtained:
# Assay in all cases: glycan array binding signal (z-score within array); higher = stronger binding
# Settings in all cases: glycan notation: IUPAC condensed, linker removed
# [1] = molecular target: Neu5Ac(a2-3)Gal(b1-4)GlcNAc(b1-3)Gal(b1-4)GlcNAc(b1-3)Gal(b1-4)GlcNAc
# In short: (§1)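 Negative Z-scores can be read as non-binding. The Z-score is calculated within each array and then averaged across arrays of one protein sequence at different concentrations or buffers and across linkers. Arrays, 3228 in all, were curated from the Consortium for Functional Glycomics database and kept only where the protein sequence was available.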
# [2] = molecular target: Neu5Ac(a2-3)Gal(b1-4)GlcNAc(b1-3)Gal(b1-4)GlcNAc(b1-3)Gal(b1-4)GlcNAc(b1-2)Man(a1-3)[Neu5Ac(a2-3)Gal(b1-4)GlcNAc(b1-3)Gal(b1-4)GlcNAc(b1-3)Gal(b1-4)GlcNAc(b1-2)Man(a1-6)]GalNAc
# In short: as §1
# [3] = molecular target: Neu5Ac(a2-3)Gal(b1-4)GlcNAc(b1-3)Gal(b1-4)GlcNAc(b1-3)GalNAc
# In short: as §1
# [4] = molecular target: Neu5Ac(a2-3)Gal(b1-4)GlcNAc(b1-3)Gal(b1-4)GlcNAc(b1-3)[Neu5Ac(a2-3)Gal(b1-4)GlcNAc(b1-3)Gal(b1-4)GlcNAc(b1-6)]GalNAc
# In short: as §1
# [5] = molecular target: Neu5Ac(a2-3)Gal(b1-4)GlcNAc(b1-3)Gal(b1-4)GlcNAc(b1-6)[Gal(b1-3)]GalNAc
# In short: as §1
# [6] = molecular target: Neu5Ac(a2-3)Gal(b1-4)GlcNAc(b1-3)Gal(b1-4)[Fuc(a1-3)]GlcNAc
# In short: as §1
# [7] = molecular target: Neu5Ac(a2-3)Gal(b1-4)GlcNAc(b1-3)GalNAc
# In short: as §1
# [8] = molecular target: Neu5Ac(a2-3)Gal(b1-4)GlcNAc(b1-3)[Neu5Ac(a2-3)Gal(b1-4)GlcNAc(b1-6)]GalNAc
# In short: as §1
# [9] = molecular target: Neu5Ac(a2-3)Gal(b1-4)GlcNAc(b1-6)GalNAc
# In short: as §1
# [10] = molecular target: Neu5Ac(a2-3)Gal(b1-4)GlcNAc(b1-6)[Gal(b1-3)]GalNAc
# In short: as §1
# [11] = molecular target: Neu5Ac(a2-3)Gal(b1-4)GlcNAc(b1-6)[Neu5Ac(a2-3)Gal(b1-3)]GalNAc
# In short: as §1
# [12] = molecular target: Neu5Ac(a2-3)Gal(b1-4)GlcNAc6S
# In short: as §1
# [13] = molecular target: Neu5Ac(a2-3)Gal(b1-4)[Fuc(a1-3)]GlcNAc
# In short: as §1
# [14] = molecular target: Neu5Ac(a2-3)Gal(b1-4)[Fuc(a1-3)]GlcNAc(b1-2)Man
# In short: as §1
# [15] = molecular target: Neu5Ac(a2-3)Gal(b1-4)[Fuc(a1-3)]GlcNAc(b1-3)Gal
# In short: as §1
# [16] = molecular target: Neu5Ac(a2-3)Gal(b1-4)[Fuc(a1-3)]GlcNAc(b1-3)Gal(b1-4)GlcNAc
# In short: as §1
# [17] = molecular target: Neu5Ac(a2-3)Gal(b1-4)[Fuc(a1-3)]GlcNAc(b1-3)Gal(b1-4)[Fuc(a1-3)]GlcNAc(b1-3)Gal(b1-4)[Fuc(a1-3)]GlcNAc
# In short: as §1
# [18] = molecular target: Neu5Ac(a2-3)Gal(b1-4)[Fuc(a1-3)]GlcNAc(b1-3)GalNAc
# In short: as §1
# [19] = molecular target: Neu5Ac(a2-3)Gal(b1-4)[Fuc(a1-3)]GlcNAc(b1-6)[Gal(b1-3)]GalNAc
# In short: as §1
# [20] = molecular target: Neu5Ac(a2-3)Gal(b1-4)[Fuc(a1-3)]GlcNAc(b1-6)[Neu5Ac(a2-3)Gal(b1-3)]GalNAc
# In short: as §1
# [21] = molecular target: Neu5Ac(a2-3)Gal(b1-4)[Fuc(a1-3)]GlcNAc6S
# In short: as §1
# [22] = molecular target: Neu5Ac(a2-3)Gal6S(b1-4)GlcNAc
# In short: as §1
# [23] = molecular target: Neu5Ac(a2-3)Gal6S(b1-4)[Fuc(a1-3)]GlcNAc
# In short: as §1
# Neu5Ac(a2-3)GalNAc = molecular target: Neu5Ac(a2-3)GalNAc
# In short: as §1
# [24] = molecular target: Neu5Ac(a2-3)GalNAc(b1-4)GlcNAc
# In short: as §1
# [25] = molecular target: Neu5Ac(a2-3)[GalNAc(b1-4)]Gal(b1-4)Glc
# In short: as §1
# [26] = molecular target: Neu5Ac(a2-3)[GalNAc(b1-4)]Gal(b1-4)GlcNAc
# In short: as §1
# [27] = molecular target: Neu5Ac(a2-3)[GalNAc(b1-4)]Gal(b1-4)GlcNAc(b1-3)GalNAc
# In short: as §1
# [28] = molecular target: Neu5Ac(a2-3)[Neu5Ac(a2-6)]GalNAc
# In short: as §1
# Neu5Ac(a2-6)Gal = molecular target: Neu5Ac(a2-6)Gal
# In short: as §1
# [29] = molecular target: Neu5Ac(a2-6)Gal(b1-3)GlcNAc(b1-3)[Gal(b1-4)GlcNAc(b1-6)]Gal(b1-4)Glc
# In short: as §1
# Neu5Ac(a2-6)Gal(b1-4)Glc = molecular target: Neu5Ac(a2-6)Gal(b1-4)Glc
# In short: as §1
# [30] = molecular target: Neu5Ac(a2-6)Gal(b1-4)GlcNAc
# In short: as §1
# [31] = molecular target: Neu5Ac(a2-6)Gal(b1-4)GlcNAc(b1-2)Man
# In short: as §1
# [32] = molecular target: Neu5Ac(a2-6)Gal(b1-4)GlcNAc(b1-2)Man(a1-3)Man(b1-4)GlcNAc(b1-4)GlcNAc
# In short: as §1
# [33] = molecular target: Neu5Ac(a2-6)Gal(b1-4)GlcNAc(b1-2)Man(a1-3)[Gal(b1-4)GlcNAc(b1-2)Man(a1-6)]Man(b1-4)GlcNAc(b1-4)GlcNAc
# In short: as §1
# [34] = molecular target: Neu5Ac(a2-6)Gal(b1-4)GlcNAc(b1-2)Man(a1-3)[GlcNAc(b1-2)Man(a1-6)]Man(b1-4)GlcNAc(b1-4)GlcNAc
# In short: as §1
# [35] = molecular target: Neu5Ac(a2-6)Gal(b1-4)GlcNAc(b1-2)Man(a1-3)[GlcNAc(b1-4)][Neu5Ac(a2-6)Gal(b1-4)GlcNAc(b1-2)Man(a1-6)]Man(b1-4)GlcNAc(b1-4)GlcNAc
# In short: as §1
binder,measurement,setting,value
B1,glycan array binding signal (z-score),[1],-0.251
same,glycan array binding signal (z-score),[2],-0.109
same,glycan array binding signal (z-score),[3],-0.398
same,glycan array binding signal (z-score),[4],-0.344
same,glycan array binding signal (z-score),[5],-0.291
same,glycan array binding signal (z-score),[6],-0.359
same,glycan array binding signal (z-score),[7],-0.062
same,glycan array binding signal (z-score),[8],-0.316
same,glycan array binding signal (z-score),[9],-0.136
same,glycan array binding signal (z-score),[10],-0.062
same,glycan array binding signal (z-score),[11],-0.43
same,glycan array binding signal (z-score),[12],-0.282
same,glycan array binding signal (z-score),[13],-0.501
same,glycan array binding signal (z-score),[14],-0.21
same,glycan array binding signal (z-score),[15],-0.489
same,glycan array binding signal (z-score),[16],-0.229
same,glycan array binding signal (z-score),[17],-0.264
same,glycan array binding signal (z-score),[18],-0.389
same,glycan array binding signal (z-score),[19],-0.269
same,glycan array binding signal (z-score),[20],-0.162
same,glycan array binding signal (z-score),[21],-0.185
same,glycan array binding signal (z-score),[22],-0.468
same,glycan array binding signal (z-score),[23],-0.371
same,glycan array binding signal (z-score),Neu5Ac(a2-3)GalNAc,-0.148
same,glycan array binding signal (z-score),[24],1.16
same,glycan array binding signal (z-score),[25],-0.447
same,glycan array binding signal (z-score),[26],-0.449
same,glycan array binding signal (z-score),[27],-0.275
same,glycan array binding signal (z-score),[28],-0.485
same,glycan array binding signal (z-score),Neu5Ac(a2-6)Gal,-0.376
same,glycan array binding signal (z-score),[29],-0.386
same,glycan array binding signal (z-score),Neu5Ac(a2-6)Gal(b1-4)Glc,-0.292
same,glycan array binding signal (z-score),[30],-0.341
same,glycan array binding signal (z-score),[31],-0.14
same,glycan array binding signal (z-score),[32],-0.348
same,glycan array binding signal (z-score),[33],-0.313
same,glycan array binding signal (z-score),[34],-0.421
same,glycan array binding signal (z-score),[35],-0.541
